The other results are listed elsewhere or left out. These are noisy estimates, calculated here from bound and input reads.

In this assay the target is T1, Pho4 (S. cerevisiae) (UniProt P07270).
T1 sequence: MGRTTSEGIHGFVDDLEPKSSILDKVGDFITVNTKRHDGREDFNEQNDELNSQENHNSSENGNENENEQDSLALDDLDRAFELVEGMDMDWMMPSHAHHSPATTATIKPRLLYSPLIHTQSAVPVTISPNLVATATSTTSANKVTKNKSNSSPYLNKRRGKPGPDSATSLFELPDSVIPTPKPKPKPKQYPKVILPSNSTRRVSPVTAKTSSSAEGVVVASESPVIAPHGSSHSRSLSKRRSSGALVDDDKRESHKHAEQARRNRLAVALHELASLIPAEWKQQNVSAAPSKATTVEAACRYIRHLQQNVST
As to the kind of experiment: relative binding free energy (BET-seq); higher = weaker binding. The conditions noted are these: reference: library average.
TGGAGCACGTGGTGTG: the “relative binding free energy” value is -0.12 kcal/mol.
Then GTTTTCACGTGTAATT, with 0.4 kcal/mol; and TTACACACGTGGTTGT, with 0 kcal/mol; and TAATACACGTGGGATG, with 0.04 kcal/mol.
With TCAATCACGTGTGAGT the figure was 0.27 kcal/mol.
Then CGTGACACGTGGGCGT, with -0.11 kcal/mol; and ATTGGCACGTGTACAT, with 0.02 kcal/mol.
For the sequence GCTTACACGTGGTTGA, the “relative binding free energy” value worked out at 0.2 kcal/mol.
Then GGATGCACGTGTGGGC, with 0 kcal/mol; and GGATTCACGTGCATGT, with 0.24 kcal/mol.
With GACGTCACGTGCTGGG the figure was 0.17 kcal/mol; with ATTGCCACGTGGGGTA, -0.35 kcal/mol.
As to GGGGACACGTGGTCAT, the “relative binding free energy” value is -0.12 kcal/mol.
Then ATCCGCACGTGAGGGT, with 0.07 kcal/mol; and GGCGTCACGTGGACTG, with 0.17 kcal/mol; and AAGGTCACGTGGGAGC, with 0.06 kcal/mol.
Then ATAGACACGTGGAGTT, with -0.06 kcal/mol; and TTCTGCACGTGGTGAG, with 0.02 kcal/mol.
With TGCGGCACGTGCTATG the figure was -0.18 kcal/mol; with TGAGACACGTGGTTGT, -0.01 kcal/mol.
Regarding GTTAGCACGTGATATA, the “relative binding free energy” value turned out to be 0.11 kcal/mol.
Then TTGTTCACGTGTCCGG, with 0.29 kcal/mol.
With CTGTGCACGTGCTGAG the figure was -0.01 kcal/mol; with TGGTACACGTGTAGTT, 0.07 kcal/mol.
Then ATCAACACGTGTTATT, with 0.17 kcal/mol; and GTTTGCACGTGGCAAG, with -0.11 kcal/mol.
For AGACGCACGTGTTTGT, the “relative binding free energy” value is -0.27 kcal/mol.
With TTAAGCACGTGTCGTA the figure was -0.06 kcal/mol; with GTGGTCACGTGGAGCA, 0.18 kcal/mol.
For TTGTGCACGTGTGTTC, the “relative binding free energy” value came out at 0.02 kcal/mol.
Regarding CCATGCACGTGGTGTG, the “relative binding free energy” value was -0.18 kcal/mol.
Then CATGGCACGTGGAGTG, with -0.04 kcal/mol; and TTTTTCACGTGTCTGT, with 0.34 kcal/mol.
Take AATAGCACGTGGTTAG: the “relative binding free energy” value is -0.14 kcal/mol.
Then TAATGCACGTGATAGG, with 0.01 kcal/mol.
With GGGTACACGTGGTAAA the figure was 0.08 kcal/mol; with GTGCACACGTGAGGAT, 0.38 kcal/mol.
Then CTTAGCACGTGGCGGG, with -0.1 kcal/mol; and CTTGACACGTGGGGGT, with -0.23 kcal/mol.
As for AGTTTCACGTGTTCTA, the “relative binding free energy” value was 0.3 kcal/mol.
Then GTTAGCACGTGTGTTT, with 0.1 kcal/mol; and CAGTACACGTGGGTTG, with -0.18 kcal/mol.
Then CGTGGCACGTGGGTGC, with -0.19 kcal/mol; and ATTGACACGTGTGTGT, with -0.02 kcal/mol; and TACGGCACGTGAAGGG, with 0.12 kcal/mol.
Then CGCGACACGTGTTGGT, with 0.2 kcal/mol; and GGTCACACGTGGGACG, with 0.17 kcal/mol.
With TCCGTCACGTGTTTTG, the “relative binding free energy” value turned out to be 0.18 kcal/mol.
Consider GGGTACACGTGACGGT, for which the “relative binding free energy” value came to 0.26 kcal/mol.
With GGTGGCACGTGCACGG the figure was -0.17 kcal/mol; with TTGGCCACGTGTCGTT, -0.1 kcal/mol.
Then TGACGCACGTGTTGGT, with -0.04 kcal/mol; and GTCGTCACGTGGATGG, with 0.02 kcal/mol.
As to TTTGGCACGTGTAGGA, the “relative binding free energy” value is -0.03 kcal/mol.
With TGGAACACGTGCTTGG the figure was -0.04 kcal/mol; with AGTATCACGTGGTCCG, 0.32 kcal/mol; with ATGGACACGTGGCTGA, -0.02 kcal/mol.
Then TCATACACGTGATTGT, with 0.3 kcal/mol.
Then TTTACCACGTGGTTTT, with 0.01 kcal/mol; and GTAATCACGTGGATGG, with 0.06 kcal/mol; and ATTATCACGTGTTAGG, with 0.14 kcal/mol.
Take GGGTTCACGTGGCCGT: the “relative binding free energy” value was 0.39 kcal/mol.
TTCGGCACGTGAGACG: the “relative binding free energy” value came out at 0.19 kcal/mol.
With ATTGTCACGTGTATGG the figure was 0.19 kcal/mol.
With TTGGTCACGTGTATTC the figure was 0.12 kcal/mol; with TTGTACACGTGGGCGC, -0.17 kcal/mol; with TTAGGCACGTGACGAG, -0.03 kcal/mol.
Regarding TTTGACACGTGATAAT, the “relative binding free energy” value is 0.03 kcal/mol.
As to TGCGACACGTGGTTCA, the “relative binding free energy” value amounted to 0.14 kcal/mol.
Regarding AGTGGCACGTGGCTTA, the “relative binding free energy” value is -0.09 kcal/mol.
Then AGGGTCACGTGGGACT, with 0.01 kcal/mol; and GGGGGCACGTGTAGCT, with -0.07 kcal/mol.
Then TATTACACGTGGTATT, with -0.02 kcal/mol.
On to TTTTACACGTGGAAGT, for which the “relative binding free energy” value came to 0.17 kcal/mol.
With TCGTTCACGTGGATAT the figure was 0.27 kcal/mol; with ATGTGCACGTGAGGGC, 0.14 kcal/mol.
On to GGTAACACGTGCTTGA, for which the “relative binding free energy” value came to 0.06 kcal/mol.
Then TGGGCCACGTGAGGAA, with 0.15 kcal/mol; and CTTGGCACGTGGTATG, with -0.26 kcal/mol.
With TTGGACACGTGATATG the figure was 0.12 kcal/mol; with GCGCACACGTGTTGGG, 0.06 kcal/mol.
With ATGTTCACGTGCTTTG the figure was 0.27 kcal/mol; with GTTTCCACGTGTCGTG, 0.23 kcal/mol.
For the sequence CGGTGCACGTGATTTA, the “relative binding free energy” value was 0.17 kcal/mol.
With GGGCACACGTGTGCGG the figure was 0.09 kcal/mol; with TAAGACACGTGATGGA, 0.27 kcal/mol.
With ATTATCACGTGTTACT the figure was 0.25 kcal/mol; with GTAGGCACGTGTGGGG, 0.04 kcal/mol.
Then TTATTCACGTGAGGTG, with 0.4 kcal/mol; and TAGGTCACGTGCAATT, with 0.13 kcal/mol; and TTATTCACGTGATAGC, with 0.33 kcal/mol.
With TAGGGCACGTGAATGA, the “relative binding free energy” value came to 0.21 kcal/mol.
Then CGTTGCACGTGCTTAG, with 0.01 kcal/mol; and TGTGACACGTGAGTTC, with 0.26 kcal/mol; and TTAATCACGTGGGAAG, with 0.05 kcal/mol.
With CTGGTCACGTGATGGC the figure was 0.09 kcal/mol; with ACGGGCACGTGGAGGC, -0.05 kcal/mol; with GGCTGCACGTGAGGAA, 0.32 kcal/mol.
Then TCTAGCACGTGGTAAG, with -0.01 kcal/mol; and TATTTCACGTGTTCAG, with 0.22 kcal/mol.
For GTTAGCACGTGCTAGT, the “relative binding free energy” value was -0.14 kcal/mol.
With TTGTTCACGTGTATCA the figure was 0.18 kcal/mol.
With GAGAACACGTGGGATG the figure was 0.07 kcal/mol; with TTGTACACGTGGTCGT, 0.04 kcal/mol.
With TTAGTCACGTGTTGGG the figure was 0.14 kcal/mol; with AGGCTCACGTGGATTT, 0.24 kcal/mol.
Consider TGAGACACGTGTGTCG, for which the “relative binding free energy” value was determined as 0.2 kcal/mol.
Then TCTGTCACGTGGAATG, with 0.22 kcal/mol.
Regarding GCGTGCACGTGGCTGG, the “relative binding free energy” value is -0.15 kcal/mol.
With TGGGGCACGTGAGTAC the figure was 0.04 kcal/mol; with TGGCTCACGTGTAAGT, 0.14 kcal/mol; with GAGGCCACGTGAAGTG, 0.42 kcal/mol.
Consider GTGAGCACGTGGACTG, for which the “relative binding free energy” value is -0.12 kcal/mol.
Then TTACACACGTGGTGTG, with -0.19 kcal/mol; and CGGGCCACGTGTGGAT, with -0.02 kcal/mol.
